According to PubChem BioAssay AID1345082 (National Center for Advancing Translational Sciences (NCATS), 2018):
Screen size: about 94,000 compounds; about 4,000 (4.3%) were called active. The inconclusive results got no clear call from the source; some entries with a clear call stand among them for comparison. Calls come from the whole dose curve; as a rule, active = well fitted inhibition curve with a large enough effect; inconclusive = small, poorly fitted or top-dose-only effect; inactive = no such curve, though single readings can be large or run the other way. A potency beside an inconclusive call is a rough fit, not a confirmed value.

assay: Cytotoxic Profiling in NIH 3T3 Cell Line of Diverse Libraries Using Quantitative High-Throughput Screening; details: NIH 3T3 viability, CellTiter-Glo ATP luminescence, 48-72 h; series mostly up to 96.7 µM; note: nearly all actives have a fitted effect of over 55% in size
Outline: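 Luminescent ATP readout (CellTiter-Glo, 10 min RT) after 48 or 72 hr compound exposure of NIH 3T3 cells seeded at 400 cells/well in 1536-well format; quantitative HTS.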
Potency is the fitted concentration of half-maximal effect; tags give direction and shape of the fitted curve.

Row | SMILES | Potency
1 | COc1ccc(OCc2nc(C3CN(C(=O)c4sccc4C)C3)no2)cc1 | inconclusive: 50.1 µM [inhibitor, partial curve, poor fit]
2 | O=C(NCc1nnc2c(-c3nc(C4CC4)no3)cccn12)c1cccc(Cl)c1 | inconclusive: 50.1 µM [inhibitor, partial curve, poor fit]
3 | COCCN1CCCC2(CCN(c3nc4c(c(=O)[nH]c(=O)n4C)n3C)C2)C1=O (configuration not stated) | inactive
4 | COc1ccc(Nc2cnc3ccc(-c4ccc(OC)c(OC)c4)nn23)cc1 | active: 14.1 µM
5 | O=C(c1ccc(C(F)(F)F)cc1)N1CCN(c2ccnc3ccnn23)CC1 | inconclusive: 44.7 µM [inhibitor, partial curve, poor fit]
6 | Cc1ccc(OCCC2CCN(C(=O)Nc3cccc(C)c3)C2)cc1 (configuration not stated) | inconclusive: 50.1 µM [inhibitor, partial curve, poor fit]
7 | Cn1cnc(S(=O)(=O)N2CCC(c3noc(-c4ccccc4)n3)C2)c1 (configuration not stated) | inactive
8 | O=C(c1ccccc1)N1CCC(c2nn(-c3ccc(Cl)cc3)c(=O)[nH]2)CC1 | inconclusive: 44.7 µM [inhibitor, partial curve, poor fit]
9 | CN(CCCNC(=O)CCC[C@H]1NC[C@@H]2C[C@H]1CN(Cc1ccccc1)C2)C1CCCCC1 | inactive
10 | O=C(O)[C@@H]1CN(S(=O)(=O)C2CC2)C[C@H]1c1ccccn1 | inactive
11 | O=C1CC2(CCN(C(=O)C3CCN(C(=O)C4CC4)C3)CC2)Oc2ccccc2N1 (configuration not stated) | inactive
12 | CC(C)n1nc(OC(C)(C)C(=O)NC2CC2)c2cc(CN3CCOCC3)ccc21 | inconclusive: 79.4 µM [inhibitor, partial curve]
13 | O=C(NCc1cccc(Cl)c1)C1CCN(c2ccnc3ccnn23)CC1 | inconclusive: 3.16 µM [inhibitor, full curve, poor fit]
14 | O=C(Nc1nc2c(s1)CCC2)C1CC(=O)N(c2n[nH]c3cccc(F)c23)C1 (configuration not stated) | inconclusive: 70.8 µM [inhibitor, partial curve, poor fit]
15 | Cc1ccc(-c2ccccc2C=O)cc1Cl | inconclusive: 100 µM [inhibitor, partial curve, poor fit]
16 | COCCNc1ncc(-c2ccnc(C)c2)c2c1OCC2 | inconclusive: 6.31 µM [inhibitor, full curve, poor fit]
17 | COc1ccc(-c2[nH]ncc2CN2CCCN(S(=O)(=O)c3ccccc3)CCC(=O)NCC2)cc1 | inconclusive: 50.1 µM [inhibitor, partial curve, poor fit]
18 | CCc1nn(-c2ccc(F)cc2)c(Oc2ccccc2)c1CCC(=O)NCC1CCCO1 (configuration not stated) | active: 31.6 µM
19 | CN(C)c1cccc(-c2cn(C)c(=O)n3cc(COc4ccnn4C)nc23)c1 | inconclusive: 20 µM [inhibitor, partial curve, poor fit]
20 | CC(=O)N1CCN(C(=O)c2ccc3nnc(-c4cccc(C(F)(F)F)c4)n3c2)CC1 | inactive
21 | COCC1CN(Cc2ccccc2)C(=O)c2ccc(C)nc2O1 (configuration not stated) | inconclusive: 79.4 µM [inhibitor, partial curve, poor fit]
22 | CSc1cccc(NC(=O)C2CCCN(c3cnc4nc(C)c(C)nc4c3)C2)c1 (configuration not stated) | inactive
23 | COc1ccc([C@H](C)NC(=O)c2c(C)noc2-c2cccs2)cc1 | inconclusive: 44.7 µM [inhibitor, partial curve, poor fit]

Row | SMILES | Potency
24 | CCCC(=O)N1Cc2ccccc2CC2(CCCN2Cc2cccnc2)C1 (configuration not stated) | inactive
25 | Cn1ncc2c(C(=O)NCc3ccc4c(c3)OCO4)cc(-c3ccccc3F)nc21 | inconclusive: 15.8 µM [inhibitor, full curve, poor fit]
26 | Cc1nc2ccccc2n1Cc1cc(C(=O)N2CCCC2)no1 | inconclusive: 50.1 µM [inhibitor, partial curve, poor fit]
27 | O=C(C1CC=CC1)N1CCC[C@H](n2c(=O)n(Cc3cccc(F)c3)c3cccnc32)C1 | inconclusive: 44.7 µM [inhibitor, partial curve]
28 | CC(C)OCCCNC(=O)CCC1CCN(C(=O)c2ccccc2F)CC1 | inactive
29 | O=C1NC(=NC2CCCC2)C2(CCN(CC3CC3)C2)N1c1cc(F)cc(F)c1 (configuration not stated) | inconclusive: 15.8 µM [inhibitor, partial curve, poor fit]
30 | O=C(Cc1cccc(F)c1)Nc1cccc(-c2nnc3n2CCCC3)c1 | inconclusive: 44.7 µM [inhibitor, partial curve, poor fit]
31 | CN(Cc1nc(-c2cccnc2)no1)C(=O)CC1COCCN1 (configuration not stated) | inactive
32 | CSc1ccccc1-c1nc(C2CCOC2)no1 (configuration not stated) | inconclusive: 50.1 µM [inhibitor, partial curve, poor fit]
33 | O=C(c1ccco1)N1CC[C@@H]2[C@@H](CCC(=O)N2CCC2=CCCCC2)C1 | inactive
34 | COc1ccc(OCc2nc3c(n2Cc2ccccc2)C(=O)N(Cc2ccccc2F)CCN3)cc1OC | inconclusive: 50.1 µM [inhibitor, partial curve, poor fit]
35 | O=C(CNC(=O)c1cccc(-c2ccc(C(F)(F)F)cc2)c1)NCCc1ccc(F)cc1 | inconclusive: 44.7 µM [inhibitor, partial curve, poor fit]
36 | COc1ccc(CNC(=O)C[C@@H]2CCNC[C@@H]2Cc2cc(COc3ccccc3)on2)cc1 | active: 25.1 µM
37 | Cn1cc(-c2cn(C)c(=O)n3cc(COc4ccccc4)nc23)cn1 | inconclusive: 56.2 µM [inhibitor, partial curve, poor fit]
38 | COc1ccccc1CC(=O)N1CCCc2ncc(C(=O)N3CCC(OC)CC3)cc21 | inconclusive: 112 µM [inhibitor, single point]
39 | Cc1nn2c(c1-c1ccccc1Oc1ccccc1)N(C(=O)Cc1ccc3c(c1)OCO3)CCC2 | inconclusive: 50.1 µM [inhibitor, partial curve, poor fit]
40 | Cc1cc2nc3n(c(=O)c2n1CC(=O)Nc1ccc(F)cc1)CCCCC3 | inconclusive: 50.1 µM [inhibitor, partial curve, poor fit]
41 | CC(C)c1ccc(CN2C[C@@H]3C(=O)N(CCc4ccccc4)C(=O)[C@@H]3C2)cc1 | inconclusive: 50.1 µM [inhibitor, single point]
42 | CC(C)CCN1CCC(N2CCN(C(=O)CCCc3ccccc3)CC2)C1=O (configuration not stated) | inactive
43 | COCc1ccc2c(c1)c(OC(C)(C)C(=O)NCc1cnccn1)nn2Cc1ccccc1 | active: 39.8 µM
44 | CN1c2cc(C(=O)Nc3cccc(C(F)(F)F)c3)ccc2C(=O)N2CCCCC21 (configuration not stated) | inconclusive: 50.1 µM [inhibitor, partial curve, poor fit]
45 | Cc1cccc(-n2nc(-c3c(C)nc4scc(CC(=O)NC5CCCCC5)n4c3=O)cc2C)c1C | inconclusive: 50.1 µM [inhibitor, partial curve, poor fit]
46 | O=C(c1ccccc1-c1ncn[nH]1)N1CCn2nc(Cc3ccccc3)cc2C1 | inactive

Row | SMILES | Potency
47 | Cc1nc(Cn2ccnc2-c2cn(C3CCNCC3)nn2)cs1 | inconclusive: 89.1 µM [inhibitor, single point]
48 | O=C(NC1CCCN(c2ccnc3ccnn23)C1)c1cncc(Br)c1 (configuration not stated) | inconclusive: 50.1 µM [inhibitor, partial curve, poor fit]
49 | CC(C)CCn1c(CN2CCN(C(C)C)C(CCO)C2)nc2ccccc21 (configuration not stated) | inactive
50 | COc1ccc(-n2nc(C3CCCN(C(=O)Nc4ccc(Cl)cc4)C3)[nH]c2=O)cc1 (configuration not stated) | inactive
51 | Cc1noc(C)c1[S+](=O)([O-])N1CCC2(CC(c3cccc(C(F)(F)F)c3)=NO2)C1 (configuration not stated) | inactive
52 | CNc1ncc(C(=O)N2CCCC(CCc3ccc(F)cc3)C2)cn1 (configuration not stated) | inconclusive: 79.4 µM [inhibitor, partial curve, poor fit]
53 | COc1cccc(CNC(=O)c2c[nH]c3ncccc23)c1 | inconclusive: 89.1 µM [inhibitor, partial curve, poor fit]
54 | CNC(C)c1cnccn1 (configuration not stated) | inactive
55 | Cc1ccc(CC(=O)N2[C@@H]3CC[C@H]2CC(NC(=O)c2ccncc2)C3)cc1 (some centres not stated) | inactive
56 | O=C1CCC2(C(=O)NCCN3CCOCC3)CCCC=C2N1C1CCCC1 (configuration not stated) | inactive
57 | O=C1CCN(S(=O)(=O)c2ccccc2)CCCN(C(=O)C2(c3ccccc3)CC2)CCN1 | inactive
58 | CC(C)CCN1C(=O)CC[C@]2(C(=O)N3CCN(c4ccc(F)cc4)CC3)CCCC[C@@H]12 | inconclusive: 50.1 µM [inhibitor, single point]
59 | COC[C@H]1NC(=O)CC[C@H]1C(=O)N1CCN(Cc2ccccc2)CC1 | inconclusive: 56.2 µM [inhibitor, partial curve, poor fit]
60 | COc1ccc(Cn2c(=O)c(C(=O)N3CCN([S+](C)(=O)[O-])CC3)nc3cccnc32)cc1 | inactive
61 | CCc1nc(NC(=O)C[C@H]2NC(=O)c3ccccc3NC2=O)sc1C | inconclusive: 15.8 µM [inhibitor, partial curve, poor fit]
62 | O=C(NCc1cccc(Cl)c1)c1ccc2nnc(C3CCCC3)n2c1 | active: 39.8 µM
63 | O=C1N(Cc2cccnc2)C[C@H]2CN(Cc3ccc(C(F)(F)F)cc3)CCN12 | inconclusive: 22.4 µM [inhibitor, full curve]
64 | Cn1ccnc1CN1CC2(CCN(C(=O)C3CC3)CC2)CC1C(=O)O (configuration not stated) | inactive
65 | O=C1COc2cc(C(=O)NC3CC(c4nnc(CO)n4C4CC4)C3)ccc2N1 (configuration not stated) | inactive
66 | Cc1ccc(Nc2ccnc(N3CCC(C(=O)N4CCN(c5ncccn5)CC4)CC3)n2)cc1 | active: 35.5 µM
67 | Cc1nc([C@@H]2CN(C(=O)c3ccc4ncccc4c3)C[C@H]2C(N)=O)n[nH]1 | inactive
